Laboratory results reported in patent publication US20220089736A1.

Key:
[1] = target: CD28 (Cluster of Differentiation 28) (human) (UniProt P10747); assay: cell-based or functional assay
[2] = target: CD28 (Cluster of Differentiation 28) (human) (UniProt P10747); assay: flow cytometry, binding to human pan T cells (dependent on the CD28 arm)
[3] = target: CD28 (Cluster of Differentiation 28) (human) (UniProt P10747); assay: flow cytometry, binding to H929 cells (carry CD28 and BCMA; binding largely dependent upon CD28 arm)

activation of Vβ17 T cells in co-culture with H929 cells (CD25, CD71, proliferation), 96 hours [1]: 100 fold
EC50 [2]: 0.03 µg/mL
EC50 [3]: 0.08 µg/mL
B1: VB28B3 (protein, from a related filing, not shown: a dimerising Fc or GST)
VH 1: QVQLQQWGAGLLKPSETLSLICAVYGGSFSGYYWSWIRQPPGKGLEWIGDINHSGNTNFNPSLKSRVTISVDTSKNQFSLKLSSVTAADTAVYYCAKGEAWFDPWGQGIMVTVSS
VL 1: EIVMTQSPATLSVSPGERATLSCRASQSVRSNLDWYQQKPGQAPRLLIYGASTRATGIPARFSGSGSGTEFTLTISSLQSEDFAVYYCQQYNNWPLTFGGGTKVEIK
VH 2: QVQLQESGPGLVKPSETLSLTCTVSGYSITSGYFWNWIRQPPGKGLEWIGYISYDGSNNYNPSLKSRVTISRDTSKNQFSLKLSSVTAADTAVYYCASPSPGTGYAVDYWGQGTLVTVSS
VL 2: DIQMTQSPSSLSASVGDRVTITCRSSQSLVHSNGNTYLHWYQQKPGKAPKFLIYKVSNRFSGVPSRFSGSGSGTDFTLTISSLQPEDFATYYCSQSTHVPFTFGQGTKLEIK
VH 3: [about 100 residues not given here]DEGYSSGHYYGMDVWGQGTTVTVSS
VL 3: EIVLTQSPGTLSLSPGERATLSCRASQSISSSFLTWYQQKPGQAPRLLIYGASSRATGIPDRFSGGGSGTDFTLTISRLEPEDFAVYYCQHYGSSPMYTFGQGTKLEIK
